Among all 310,000 compounds or so, about 14,000 (4.5%) showed an effect of 50% or more. The effect is printed as a negative number. The list shows a part of the results.
molecular target: human ether-à-go-go-related gene (hERG) potassium channel (human, UniProt Q12809); test: primary screen, population patch clamp on CHO cells stably expressing hERG
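Further: peak tail current of the secondary pulse compared with the same well before compound.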

Sequence of human ether-à-go-go-related gene (hERG) potassium channel (Q12809 whole entry, looked up): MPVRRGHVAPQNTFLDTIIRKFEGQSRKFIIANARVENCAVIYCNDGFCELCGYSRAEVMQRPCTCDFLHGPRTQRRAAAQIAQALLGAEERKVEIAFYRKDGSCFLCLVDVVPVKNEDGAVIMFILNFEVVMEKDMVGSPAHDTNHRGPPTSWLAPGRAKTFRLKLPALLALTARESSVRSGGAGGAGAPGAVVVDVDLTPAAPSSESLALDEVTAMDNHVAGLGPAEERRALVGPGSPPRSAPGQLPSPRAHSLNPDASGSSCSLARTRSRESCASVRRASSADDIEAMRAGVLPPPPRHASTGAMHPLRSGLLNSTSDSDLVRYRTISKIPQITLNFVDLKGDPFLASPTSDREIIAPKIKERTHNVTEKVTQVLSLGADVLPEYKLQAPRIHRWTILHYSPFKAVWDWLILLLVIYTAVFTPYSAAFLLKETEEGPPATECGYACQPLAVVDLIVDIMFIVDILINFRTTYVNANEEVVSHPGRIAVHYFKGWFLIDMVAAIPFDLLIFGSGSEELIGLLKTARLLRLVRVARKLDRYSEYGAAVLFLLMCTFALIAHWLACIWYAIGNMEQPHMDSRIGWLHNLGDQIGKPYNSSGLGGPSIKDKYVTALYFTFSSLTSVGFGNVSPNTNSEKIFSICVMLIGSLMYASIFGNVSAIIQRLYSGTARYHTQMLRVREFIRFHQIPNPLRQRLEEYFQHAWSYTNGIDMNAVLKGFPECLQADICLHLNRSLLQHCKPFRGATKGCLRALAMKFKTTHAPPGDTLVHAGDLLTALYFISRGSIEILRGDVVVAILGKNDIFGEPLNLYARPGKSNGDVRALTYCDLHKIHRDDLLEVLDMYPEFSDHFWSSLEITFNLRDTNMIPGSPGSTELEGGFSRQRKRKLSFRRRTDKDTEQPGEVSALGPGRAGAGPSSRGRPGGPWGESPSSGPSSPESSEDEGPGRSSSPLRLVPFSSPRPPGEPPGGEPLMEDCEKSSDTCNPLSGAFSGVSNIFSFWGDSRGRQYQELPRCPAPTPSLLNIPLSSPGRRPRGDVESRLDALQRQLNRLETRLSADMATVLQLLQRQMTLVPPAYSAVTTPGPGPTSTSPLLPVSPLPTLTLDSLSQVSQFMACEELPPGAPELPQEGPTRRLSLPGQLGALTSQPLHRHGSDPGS

In order of falling “hERG current change (%, negative = inhibition) at 10uM” value:
1. CCOC(=O)c1c(C)n(C(C)C)c2ccc(OC(=O)c3ccc(N4C(=O)CCC4=O)cc3)cc12  24.4%
2. CNS(=O)(=O)c1cccc(C(=O)OCC(=O)Nc2sc3c(c2C#N)CCCCC3)c1  22.8%
3. Cc1cccc(Nc2nnc(SCC(=O)NCc3cccs3)s2)c1  21.9%
4. O=C1C(=O)N(CCCN2CCOCC2)C(c2ccc(Cl)cc2)/C1=C(/O)c1ccc(F)cc1 (centres unmarked)  21.2%
5. OCC1OC(n2nnc3ccccc32)C(O)C(O)C1O (centres unmarked)  20.8%
6. O=C(O)c1cccc(S(=O)(=O)N2CCC(n3nnc4cc(C(F)(F)F)ccc43)CC2)c1  20.7%
7. CCc1ccc(N(CC(=O)N2CCOCC2)S(C)(=O)=O)cc1  16.1%
8. CC(Sc1cnc2ccccc2n1)C(=O)O (centres unmarked)  15.9%
9. CCOc1ccc(NC(=O)CCS(=O)(=O)c2ccc(Br)cc2)cc1  12.9%
10. Cc1ccc(-n2ncc3c(NNC(=O)c4ccco4)ncnc32)cc1C  12.2%
11. O=C([O-])CCC/C=C\C[C@@H]1[C@@H](/C=C/[C@@H](O)COc2cccc(Cl)c2)[C@H](O)C[C@@H]1O.[Na+]  11.3%
12. CCOC(=O)N1CCC(NC(=O)c2ccc3c(c2)N=C(C)c2c(C)ccc(C)c2S3)CC1  11.1%
13. COc1ccccc1NC(=O)CCCN1C(=O)C2CC=CCC2C1=O (centres unmarked)  11.1%
14. CN(C)S(=O)(=O)c1cccc(-c2nn(-c3ccccc3)cc2/C=C(\C#N)c2nc3ccccc3[nH]2)c1  10.5%
15. COc1ccc(-c2noc(COc3ccc4c(c3)OCO4)n2)cc1  10.1%
16. CCOc1ccc(C(=O)NCC(=O)NCCCn2nc(C)cc2C)cc1OCC  9.39%
17. CCc1ccccc1NCC(=O)Nc1ccc(Cl)c(C(F)(F)F)c1  9.3%
18. C[C@H](NC(=O)c1nc[nH]c1C(=O)N[C@@H](Cc1ccccc1)C(=O)OCc1ccccc1)C(=O)OCc1ccccc1  8.42%
19. CC(=O)O[C@H]1CSC[C@H]1NC(=O)c1ccccc1  8.4%
20. CCOC(=O)C1CCCN(S(=O)(=O)c2c(C)[nH]c(C)c2C(=O)N2CCCC2)C1 (centres unmarked)  7.75%
21. CNC(=O)CN(c1ccc(C(C)C)cc1)S(C)(=O)=O  7.73%
22. O=C(OCC#CCSc1nc2ccccc2o1)c1cc2ccccc2o1  7.37%
23. O=C(O)c1ccc(NS(=O)(=O)c2ccc(Cl)c(C(=O)Nc3ccccc3[N+](=O)[O-])c2)cc1  7.28%
24. O=[N+]([O-])c1ccc(Cl)c(NC(=S)N2CCCC2)c1  5.47%
25. OC1/C(=C/c2ccc(Cl)cc2Cl)N2CCC1CC2 (centres unmarked)  3.66%
26. CC(=O)c1cccc(NC(=O)CN(C2CCCCC2)S(C)(=O)=O)c1  3.66%
27. O=C(N[C@@H](Cc1ccccc1)C(=O)N1CCC2(CC1)NCCc1[nH]cnc12)c1cccc(Br)c1  1.36%
28. NS(=O)(=O)c1ccc(CNC(=O)/C=C/c2ccccc2[N+](=O)[O-])cc1  0.127%
29. Fc1ccccc1N1CCN(CC2CC3C=CC2C3)CC1 (centres unmarked)  -1.09%
30. O=C(CSCc1c(Cl)cccc1Cl)NCc1ccccn1  -1.29%
31. CC(C)c1ccccc1OCCNC(=O)c1cccnc1  -1.33%
32. Cc1nc2ccccc2c2oc(C(=O)NCCCN3CCCC3=O)cc12  -2.12%
33. COC(=O)C1=C(c2ccc(-c3ccccc3)c(F)c2)C[C@@H]2CC[C@H]1N2C(=O)NCCO  -2.32%
34. COC(=O)c1ccc(CSc2nc(C(F)(F)F)c3c(c2C#N)CCC3)o1  -3.53%
35. CCN(CC)S(=O)(=O)c1ccc2c(c1)c(=O)c(C(=O)NCc1ccco1)cn2C  -3.93%
36. Clc1ccc(Cc2noc(CN3CCN(c4ccccc4)CC3)n2)c(Cl)c1  -3.94%
37. COc1ccc(CN2CC3CC(C2)c2cccc(=O)n2C3)cc1OC (centres unmarked)  -5.24%
38. Cn1c(=O)c2c(nc(SCc3nc(N)nc(N4CCCCC4)n3)n2C)n(C)c1=O  -5.28%
39. Cc1ccc(CNC(=O)CN2c3cccc4cccc(c34)S2(=O)=O)cc1  -5.89%
40. Cc1ccccc1-n1ncc2c1CC(C)(C)CC2NC(=O)CSc1ccncc1 (centres unmarked)  -8.26%
41. Fc1ccccc1OCCCCCN1CCCC1  -9.31%
42. Cc1cc2c(ccc3c2no[n+]3[O-])nn1  -10.6%
43. Cc1ccc(S(=O)(=O)NCCC(=O)N2CCC(C)CC2)cc1  -11.1%
44. Cc1noc(C)c1C(=O)N1CCC(Cc2ccccc2)CC1  -14.5%
45. Cc1ccc2[nH]c(=O)c(CN(CCCO)S(=O)(=O)c3c(C)ccc4nsnc34)cc2c1  -16%
46. CC(C)CCNC(=O)C1CCN(c2nnc(-n3cccc3)s2)CC1  -21.1%
47. COc1cccc(NC(=O)c2ccnc(N3CCC(C(=O)NCc4cc(OC)ccc4OC)CC3)c2)c1  -31.7%
48. O=C(COc1ccc(Cl)cc1)NCCCNC(=O)c1ccncc1  -36.1%
49. COc1ccc(S(=O)(=O)N(C)CC(=O)N2CCN(Cc3ccccc3)CC2)cc1C  -36.8%
50. O=C(/C=C/c1ccc[nH]1)c1ccccc1  -41.6%
51. CCN(Cc1ccccc1)C(=O)c1cccc(S(=O)(=O)N2CCN(c3ccc(F)cc3)CC2)c1  -47.2%
52. O=C(C1=C[C@H](C2CCCCC2)C[C@H](OCc2ccc(CO)cc2)O1)N1CCN(Cc2ccccc2)CC1  -67.6%
53. CC1CCN(CCCCOc2cccc(C(C)C)c2)CC1.O=C(O)C(=O)O  -71.7%
